Patent publication US20260207762A1 (ANAVEON, published 2026)

B1: DXM339 (other)
heavy: EVQLVQSGAEVKKPGESLKISCKGSGYSFTNFYIHWVRQAPGQRLEWMGSIYPNYGDTAYNQKFKDRFVFSLDTSVSTAYLQISSLKAEDTAVYYCARGYSYAMDYWGQGTTVTVSSASTKGPSVFPLAPSSKSTSGGTAALGCLVKDYFPEPVTVSWNSGALTSGVHTFPAVLQSSGLYSLSSVVTVPSSSLGTQTYICNVNHKPSNTKVDKRV[not shown - human IgG1 Fc with changes]
light: DIQMTQSPSSVSASVGDRVTITCSASQGISGGGNFHLRPRDLISNINVIVLELKGSETTFMCEYADETATIVEFLNRWITFSQSIISTLTPTSSSTKKTQLQLEHLLLDLQMILNGINNYKNPKLTRMLTFKFYMPKKATELKHLQCLEEELKPLEEVLNLAQSKGGGDLNWYQQKPGKAPKLLIYHTSSLHSGVPSRFSGSGSGTDFTLTISSLQPEDFATYYCQYYSKDLLTFGGGTKLEIKRTVAAPSVFIFPPSDEQLKSGTASVVCLLNNFYPREAKVQWKVDNALQSGNSQESVTEQDSKDSTYSLSSTLTLSKADYEKHKVYACEVTHQGLSSPVTKSFNRGEC
B2: FUE433 (other)
heavy: EVQLVQSGAEVKKPGESLKISCKGSGYSFTNFYIHWVRQAPGQRLEWMGSIYPNYGDTAYNQKFKDRFVFSLDTSVSTAYLQISSLKAEDTAVYYCARGYSYAMDYWGQGTTVTVSSASTKGPSVFPLAPSSKSTSGGTAALGCLVKDYFPEPVTVSWNSGALTSGVHTFPAVLQSSGLYSLSSVVTVPSSSLGTQTYICNVNHKPSNTKVDKRV[not shown - human IgG1 Fc with changes]
light: DIQMTQSPSSVSASVGDRVTITCSASQGISGGGGNFHLRPRDLISNINVIVLELKGSETTFMCEYADETATIVEFLNRWITFSQSIISTLTPTSSSTKKTQLQLEHLLLDLQMILNGINNYKNPKLTRMLTFKFYMPKKATELKHLQCLEEELKPLEEVLNLAQSKGGGGDLNWYQQKPGKAPKLLIYHTSSLHSGVPSRFSGSGSGTDFTLTISSLQPEDFATYYCQYYSKDLLTFGGGTKLEIKRTVAAPSVFIFPPSDEQLKSGTASVVCLLNNFYPREAKVQWKVDNALQSGNSQESVTEQDSKDSTYSLSSTLTLSKADYEKHKVYACEVTHQGLSSPVTKSFNRGEC
B3: LQM346 (other)
heavy: EVQLVQSGAEVKKPGESLKISCKGSGYSFTNFYIHWVRQAPGQRLEWMGSIYPNYGDTAYNQKFKDRFVFSLDTSVSTAYLQISSLKAEDTAVYYCARGYSYAMDYWGQGTTVTVSSASTKGPSVFPLAPSSKSTSGGTAALGCLVKDYFPEPVTVSWNSGALTSGVHTFPAVLQSSGLYSLSSVVTVPSSSLGTQTYICNVNHKPSNTKVDKRV[not shown - human IgG1 Fc with changes]
light: DIQMTQSPSSVSASVGDRVTITCSASQGISGGGGGSGNFHLRPRDLISNINVIVLELKGSETTFMCEYADETATIVEFLNRWITFSQSIISTLTPTSSSTKKTQLQLEHLLLDLQMILNGINNYKNPKLTRMLTFKFYMPKKATELKHLQCLEEELKPLEEVLNLAQSKGGGGSGGDLNWYQQKPGKAPKLLIYHTSSLHSGVPSRFSGSGSGTDFTLTISSLQPEDFATYYCQYYSKDLLTFGGGTKLEIKRTVAAPSVFIFPPSDEQLKSGTASVVCLLNNFYPREAKVQWKVDNALQSGNSQESVTEQDSKDSTYSLSSTLTLSKADYEKHKVYACEVTHQGLSSPVTKSFNRGEC
B4: GLK754 (other)
heavy: EVQLVQSGAEVKKPGESLKISCKGSGYSFTNFYIHWVRQAPGQRLEWMGSIYPNYGDTAYNQKFKDRFVFSLDTSVSTAYLQISSLKAEDTAVYYCARGYSYAMDYWGQGTTVTVSSASTKGPSVFPLAPSSKSTSGGTAALGCLVKDYFPEPVTVSWNSGALTSGVHTFPAVLQSSGLYSLSSVVTVPSSSLGTQTYICNVNHKPSNTKVDKRV[not shown - human IgG1 Fc with changes]
light: DIQMTQSPSSVSASVGDRVTITCSASQGISGGGGGSGGGGSGGGNFHLRPRDLISNINVIVLELKGSETTFMCEYADETATIVEFLNRWITFSQSIISTLTPTSSSTKKTQLQLEHLLLDLQMILNGINNYKNPKLTRMLTFKFYMPKKATELKHLQCLEEELKPLEEVLNLAQSKGGGGSGGGGSGGGGDLNWYQQKPGKAPKLLIYHTSSLHSGVPSRFSGSGSGTDFTLTISSLQPEDFATYYCQYYSKDLLTFGGGTKLEIKRTVAAPSVFIFPPSDEQLKSGTASVVCLLNNFYPREAKVQWKVDNALQSGNSQESVTEQDSKDSTYSLSSTLTLSKADYEKHKVYACEVTHQGLSSPVTKSFNRGEC
B5: Proleukin (aldesleukin) (ligand)
chain: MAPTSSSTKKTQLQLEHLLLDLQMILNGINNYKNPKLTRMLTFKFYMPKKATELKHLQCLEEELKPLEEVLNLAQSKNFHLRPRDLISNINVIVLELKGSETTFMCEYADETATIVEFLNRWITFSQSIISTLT

Assays:
[1] = biological target: T1, IL-2R on NK cells and CD8 T cells of murine splenocytes (C57BL/6 mice) (mouse); experiment: cell-based or functional assay
[2] = biological target: T1, IL-2R on NK cells and CD8 T cells of …; experiment: cell-based or functional assay; remark: listed apart in the source

Binder | EC50 CD8 cells (nM), pSTAT5+ cells in mouse splenocytes [1] | EC50 NK cells (nM), pSTAT5+ cells in mouse splenocytes [1] | EC50 pSTAT5 on CD8 cells (nM), mouse splenocytes [2] | EC50 pSTAT5 on NK cells (nM), mouse splenocytes [2]
B1 | 18.6 nM | 1.3 nM |  | 
B2 | 15.7 nM | 1.2 nM |  | 
B3 | 25.4 nM | 1.8 nM |  | 
B4 | 70.5 nM | 2.5 nM |  | 
B5 | 4.1 nM |  | 11.9 nM | 2.51 nM
